Reference: the supplement of paper PMC4967469
The IC50 comes from the fitted curve, where viability falls to half of the control; where the fit passes the top or lowest dose, that dose stands as a limit. The AUC spans the tested range (256-fold, ending at the top dose) of the same fit: 1 means no effect, lower means more sensitive.

Compound: N#CC[C@H](C1CCCC1)n1cc(-c2ncnc3[nH]ccc23)cn1 [Ruxolitinib]
Assay: Viability of human cancer cell lines after 72 h of drug (GDSC screen)
Method: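 Human cancer cell lines in 384-well plates, medium with 10% serum, drug for 72 h over a 256-fold dose range (nine 2-fold or five 4-fold steps up to the top dose). Adherent lines were fixed and stained with the nucleic acid dye Syto60, suspension lines read with resazurin; signal relative to control wells, capped at 0 and 100%. One two-parameter sigmoid per drug and line, fitted in a mixed model over all curves with the slope shared within a line.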

| Cell Line | AUC | IC50 |
| --- | --- | --- |
| 786-0 (kidney, adherent, top dose 5.24 µM) | 0.985 | > 5.24 µM |
| CHL-1 (melanoma, adherent, top dose 5.24 µM) | 0.987 | > 5.24 µM |
| SCH (stomach, adherent, top dose 5.24 µM) | 0.988 | > 5.24 µM |
| AGS (stomach, adherent, top dose 5.24 µM) | 0.989 | > 5.24 µM |
| HA7-RCC (kidney, adherent, top dose 5.24 µM) | 0.984 | > 5.24 µM |
| COR-L95 (small cell lung carcinoma, adherent, top dose 5.24 µM) | 0.966 | > 5.24 µM |
| LC4-1 (lymphoblastic leukaemia, suspension, top dose 5.24 µM) | 0.982 | > 5.24 µM |
| NCI-H1299 (large cell lung carcinoma, adherent, top dose 5.24 µM) | 0.982 | > 5.24 µM |
| Ramos-2G6-4C10 (Burkitt lymphoma, suspension, top dose 5.24 µM) | 0.99 | > 5.24 µM |
| RCM-1 (large intestine, adherent, top dose 5.24 µM) | 0.985 | > 5.24 µM |
| SW1463 (large intestine, adherent, top dose 5.24 µM) | 0.978 | > 5.24 µM |
| SK-GT-4 (oesophagus, adherent, top dose 5.24 µM) | 0.982 | > 5.24 µM |
| H2803 (mesothelioma, adherent, top dose 5.24 µM) | 0.974 | > 5.24 µM |
| H3118 (head and neck, adherent, top dose 5.24 µM) | 0.98 | > 5.24 µM |
| TC-71 (Ewing sarcoma, adherent, top dose 5.24 µM) | 0.984 | > 5.24 µM |
| RH-18 (rhabdomyosarcoma, adherent, top dose 5.24 µM) | 0.982 | > 5.24 µM |

| Cell Line | AUC | IC50 |
| --- | --- | --- |
| NCI-H82 (small cell lung carcinoma, suspension, top dose 5.24 µM) | 0.988 | > 5.24 µM |
| OACM5-1 (oesophagus, semi-adherent, top dose 5.24 µM) | 0.978 | > 5.24 µM |
| CAL-78 (chondrosarcoma, adherent, top dose 5.24 µM) | 0.986 | > 5.24 µM |
| QGP-1 (pancreas, adherent, top dose 5.24 µM) | 0.975 | > 5.24 µM |
| CAKI-1 (kidney, adherent, top dose 5.24 µM) | 0.976 | > 5.24 µM |
| KNS-42 (glioma, adherent, top dose 5.24 µM) | 0.98 | > 5.24 µM |
| YKG-1 (glioma, adherent, top dose 5.24 µM) | 0.986 | > 5.24 µM |
| COLO-678 (large intestine, semi-adherent, top dose 5.24 µM) | 0.985 | > 5.24 µM |
| HCC2218 (breast, suspension, top dose 5.24 µM) | 0.983 | > 5.24 µM |
| LOU-NH91 (lung squamous cell carcinoma, adherent, top dose 5.24 µM) | 0.979 | > 5.24 µM |
| EGI-1 (biliary tract, adherent, top dose 5.24 µM) | 0.974 | > 5.24 µM |
| IGR-1 (melanoma, adherent, top dose 5.24 µM) | 0.963 | > 5.24 µM |
| SK-N-DZ (neuroblastoma, adherent, top dose 5.24 µM) | 0.988 | > 5.24 µM |
| CPC-N (small cell lung carcinoma, suspension, top dose 5.24 µM) | 0.985 | > 5.24 µM |
| KARPAS-299 (anaplastic large cell lymphoma, suspension, top dose 5.24 µM) | 0.958 | > 5.24 µM |
| JHH-4 (liver, adherent, top dose 5.24 µM) | 0.972 | > 5.24 µM |
